# Assay results from the supplement of paper PMC8728848.
# The list shows a part of the results.
# B1: Epa12 (Candida glabrata) (protein)
# chain: MGSSHHHHHHSSGLVPRGSHMLEPDNSLQIFDSFLSNPSKYPLGCSPKITNPKKGLSMELYSYPYRKKGSHPCWDPAYLDPNFPRVGYKKNKLIARVDGVSGDINFNFHPKRQCTPIADYLPPNFNYNEPITTTNFTMLLYGYFKPKVTGLHTFDISADDLLFMNFGAGNAFDCCRRDSTADTFGNYVAWAIWGRRIVRNKLTVRLDKGIYYPLRLFFNNRDYYGQMRLTFKTEHGSERITDFSDYFFSVDDTSEGCPGLITYESECADVKSSTVLETDYITIQAEKE
# Experiments:
# Test in all cases: glycan array binding signal (z-score within array); higher = stronger binding
# Conditions in all cases: glycan notation: IUPAC condensed, linker removed
# [1] = target: GlcNAc(a1-3)Gal(b1-4)GlcNAc
# Outline: (§1)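 From the Consortium for Functional Glycomics database, 3228 arrays were curated, keeping only those whose protein sequence was available. Binding is given as a within-array Z-score averaged across arrays sharing a protein sequence and across linkers. Negative Z-scores can be read as non-binding.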
# [2] = target: GlcNAc(a1-4)Gal(b1-3)GlcNAc
# Outline: as §1
# [3] = target: GlcNAc(a1-4)Gal(b1-4)GalNAc
# Outline: as §1
# [4] = target: GlcNAc(a1-4)Gal(b1-4)GlcNAc
# Outline: as §1
# [5] = target: GlcNAc(a1-4)Gal(b1-4)GlcNAc(b1-3)Gal(b1-4)Glc
# Outline: as §1
# [6] = target: GlcNAc(a1-4)Gal(b1-4)GlcNAc(b1-3)Gal(b1-4)GlcNAc
# Outline: as §1
# [7] = target: GlcNAc(a1-4)Gal(b1-4)GlcNAc(b1-3)Gal(b1-4)GlcNAc(b1-3)Gal(b1-4)GlcNAc
# Outline: as §1
# [8] = target: GlcNAc(a1-4)Gal(b1-4)GlcNAc(b1-3)Gal(b1-4)[Fuc(a1-3)]GlcNAc(b1-3)Gal(b1-4)[Fuc(a1-3)]GlcNAc
# Outline: as §1
# [9] = target: GlcNAc(a1-6)Gal(b1-4)GlcNAc
# Outline: as §1
# [10] = target: GlcNAc(b1-2)Gal(b1-3)GalNAc
# Outline: as §1
# [11] = target: GlcNAc(b1-2)Gal(b1-3)GlcNAc
# Outline: as §1
# [12] = target: GlcNAc(b1-2)Man(a1-3)[GlcNAc(b1-2)Man(a1-6)]Man(b1-4)GlcNAc(b1-4)GlcNAc
# Outline: as §1
# [13] = target: GlcNAc(b1-2)Man(a1-3)[GlcNAc(b1-2)Man(a1-6)]Man(b1-4)GlcNAc(b1-4)[Fuc(a1-6)]GlcNAc
# Outline: as §1
# [14] = target: GlcNAc(b1-2)Man(a1-3)[GlcNAc(b1-4)][GlcNAc(b1-2)Man(a1-6)]Man(b1-4)GlcNAc(b1-4)GlcNAc
# Outline: as §1
# [15] = target: GlcNAc(b1-2)Man(a1-3)[GlcNAc(b1-4)][GlcNAc(b1-2)Man(a1-6)]Man(b1-4)GlcNAc(b1-4)[Fuc(a1-6)]GlcNAc
# Outline: as §1
# [16] = target: GlcNAc(b1-2)[GlcNAc(b1-4)]Man(a1-3)[GlcNAc(b1-2)Man(a1-6)]Man(b1-4)GlcNAc(b1-4)GlcNAc
# Outline: as §1
# [17] = target: GlcNAc(b1-2)[GlcNAc(b1-4)]Man(a1-3)[GlcNAc(b1-4)][GlcNAc(b1-2)Man(a1-6)]Man(b1-4)GlcNAc(b1-4)GlcNAc
# Outline: as §1
# [18] = target: GlcNAc(b1-2)[GlcNAc(b1-4)]Man(a1-3)[GlcNAc(b1-4)][GlcNAc(b1-2)[GlcNAc(b1-6)]Man(a1-6)]Man(b1-4)GlcNAc(b1-4)GlcNAc
# Outline: as §1
# [19] = target: GlcNAc(b1-2)[GlcNAc(b1-4)]Man(a1-3)[GlcNAc(b1-4)][GlcNAc(b1-2)[GlcNAc(b1-6)]Man(a1-6)]Man(b1-4)GlcNAc(b1-4)[Fuc(a1-6)]GlcNAc
# Outline: as §1
# [20] = target: GlcNAc(b1-2)[GlcNAc(b1-6)]Man(a1-6)[GlcNAc(b1-2)Man(a1-3)]Man(b1-4)GlcNAc(b1-4)GlcNAc
# Outline: as §1
# [21] = target: GlcNAc(b1-2)[GlcNAc(b1-6)]Man(a1-6)[GlcNAc(b1-2)Man(a1-3)]Man(b1-4)GlcNAc(b1-4)[Fuc(a1-6)]GlcNAc
# Outline: as §1
# [22] = target: GlcNAc(b1-2)[GlcNAc(b1-6)]Man(a1-6)[GlcNAc(b1-4)][GlcNAc(b1-2)Man(a1-3)]Man(b1-4)GlcNAc(b1-4)GlcNAc
# Outline: as §1
# GlcNAc(b1-3)Fuc = target: GlcNAc(b1-3)Fuc
# Outline: as §1
# GlcNAc(b1-3)Gal = target: GlcNAc(b1-3)Gal
# Outline: as §1
# [23] = target: GlcNAc(b1-3)Gal(b1-3)GalNAc
# Outline: as §1
# GlcNAc(b1-3)Gal(b1-4)Glc = target: GlcNAc(b1-3)Gal(b1-4)Glc
# Outline: as §1
# [24] = target: GlcNAc(b1-3)Gal(b1-4)GlcNAc
# Outline: as §1
# [25] = target: GlcNAc(b1-3)Gal(b1-4)GlcNAc(b1-2)Man(a1-3)[GlcNAc(b1-3)Gal(b1-4)GlcNAc(b1-2)Man(a1-6)]Man(b1-4)GlcNAc(b1-4)GlcNAc
# Outline: as §1
# [26] = target: GlcNAc(b1-3)Gal(b1-4)GlcNAc(b1-2)Man(a1-3)[GlcNAc(b1-3)Gal(b1-4)GlcNAc(b1-2)Man(a1-6)]Man(b1-4)GlcNAc(b1-4)[Fuc(a1-6)]GlcNAc
# Outline: as §1
# [27] = target: GlcNAc(b1-3)Gal(b1-4)GlcNAc(b1-2)[GlcNAc(b1-3)Gal(b1-4)GlcNAc(b1-6)]Man(a1-6)[GlcNAc(b1-3)Gal(b1-4)GlcNAc(b1-2)Man(a1-3)]Man(b1-4)GlcNAc(b1-4)GlcNAc
# Outline: as §1
# [28] = target: GlcNAc(b1-3)Gal(b1-4)GlcNAc(b1-3)Gal(b1-4)GlcNAc
# Outline: as §1
# [29] = target: GlcNAc(b1-3)Gal(b1-4)GlcNAc(b1-3)Gal(b1-4)GlcNAc(b1-2)Man(a1-3)[GlcNAc(b1-3)Gal(b1-4)GlcNAc(b1-3)Gal(b1-4)GlcNAc(b1-2)Man(a1-6)]Man(b1-4)GlcNAc(b1-4)GlcNAc
# Outline: as §1
# [30] = target: GlcNAc(b1-3)Gal(b1-4)GlcNAc(b1-3)Gal(b1-4)GlcNAc(b1-2)Man(a1-3)[GlcNAc(b1-3)Gal(b1-4)GlcNAc(b1-3)Gal(b1-4)GlcNAc(b1-2)Man(a1-6)]Man(b1-4)GlcNAc(b1-4)[Fuc(a1-6)]GlcNAc
# Outline: as §1
# [31] = target: GlcNAc(b1-3)Gal(b1-4)GlcNAc(b1-3)Gal(b1-4)GlcNAc(b1-2)[GlcNAc(b1-3)Gal(b1-4)GlcNAc(b1-3)Gal(b1-4)GlcNAc(b1-6)]Man(a1-6)[GlcNAc(b1-3)Gal(b1-4)GlcNAc(b1-3)Gal(b1-4)GlcNAc(b1-2)Man(a1-3)]Man(b1-4)GlcNAc(b1-4)[Fuc(a1-6)]GlcNAc
# Outline: as §1
# [32] = target: GlcNAc(b1-3)Gal(b1-4)GlcNAc(b1-3)Gal(b1-4)GlcNAc(b1-3)Gal(b1-4)GlcNAc(b1-2)Man(a1-3)[GlcNAc(b1-3)Gal(b1-4)GlcNAc(b1-3)Gal(b1-4)GlcNAc(b1-3)Gal(b1-4)GlcNAc(b1-2)Man(a1-6)]Man(b1-4)GlcNAc(b1-4)GlcNAc
# Outline: as §1
# [33] = target: GlcNAc(b1-3)Gal(b1-4)GlcNAc(b1-3)Gal(b1-4)GlcNAc(b1-3)Gal(b1-4)GlcNAc(b1-2)Man(a1-3)[GlcNAc(b1-3)Gal(b1-4)GlcNAc(b1-3)Gal(b1-4)GlcNAc(b1-3)Gal(b1-4)GlcNAc(b1-2)Man(a1-6)]Man(b1-4)GlcNAc(b1-4)[Fuc(a1-6)]GlcNAc
# Outline: as §1
# [34] = target: GlcNAc(b1-3)Gal(b1-4)GlcNAc(b1-3)Gal(b1-4)GlcNAc(b1-3)Gal(b1-4)GlcNAc(b1-2)[GlcNAc(b1-3)Gal(b1-4)GlcNAc(b1-3)Gal(b1-4)GlcNAc(b1-3)Gal(b1-4)GlcNAc(b1-6)]Man(a1-6)[GlcNAc(b1-3)Gal(b1-4)GlcNAc(b1-3)Gal(b1-4)GlcNAc(b1-3)Gal(b1-4)GlcNAc(b1-2)Man(a1-3)]Man(b1-4)GlcNAc(b1-4)[Fuc(a1-6)]GlcNAc
# Outline: as §1
binder,measurement,setting,value
B1,glycan array binding signal (z-score),[1],-0.35
same,glycan array binding signal (z-score),[2],-0.483
same,glycan array binding signal (z-score),[3],-0.356
same,glycan array binding signal (z-score),[4],-0.263
same,glycan array binding signal (z-score),[5],-0.589
same,glycan array binding signal (z-score),[6],-0.33
same,glycan array binding signal (z-score),[7],-0.33
same,glycan array binding signal (z-score),[8],-0.289
same,glycan array binding signal (z-score),[9],1.99
same,glycan array binding signal (z-score),[10],-0.357
same,glycan array binding signal (z-score),[11],-0.289
same,glycan array binding signal (z-score),[12],-0.315
same,glycan array binding signal (z-score),[13],-0.354
same,glycan array binding signal (z-score),[14],-0.179
same,glycan array binding signal (z-score),[15],-0.395
same,glycan array binding signal (z-score),[16],-0.323
same,glycan array binding signal (z-score),[17],-0.203
same,glycan array binding signal (z-score),[18],-0.341
same,glycan array binding signal (z-score),[19],-0.325
same,glycan array binding signal (z-score),[20],-0.332
same,glycan array binding signal (z-score),[21],-0.384
same,glycan array binding signal (z-score),[22],-0.38
same,glycan array binding signal (z-score),GlcNAc(b1-3)Fuc,-0.36
same,glycan array binding signal (z-score),GlcNAc(b1-3)Gal,-0.378
same,glycan array binding signal (z-score),[23],-0.308
same,glycan array binding signal (z-score),GlcNAc(b1-3)Gal(b1-4)Glc,-0.316
same,glycan array binding signal (z-score),[24],-0.352
same,glycan array binding signal (z-score),[25],-0.343
same,glycan array binding signal (z-score),[26],-0.335
same,glycan array binding signal (z-score),[27],-0.298
same,glycan array binding signal (z-score),[28],0.325
same,glycan array binding signal (z-score),[29],-0.373
same,glycan array binding signal (z-score),[30],-0.353
same,glycan array binding signal (z-score),[31],-0.275
same,glycan array binding signal (z-score),[32],-0.316
same,glycan array binding signal (z-score),[33],-0.364
same,glycan array binding signal (z-score),[34],-0.272
